In the supplement of paper PMC12217912:
The list shows a part of the results. Sequences were assembled here from the parent chain. Inactive controls read about 0.05.

B1: TEV protease; numbered along this chain (parent)
chain: MGESLFKGPRDYNPISSSICHLTNESDGHTTSLYGIGFGPFIITNKHLFRRNNGTLVVQSLHGVFKVKDTTTLQQHLVDGRDMIIIRMPKDFPPFPQKLKFREPQREERICLVTTNFQTKSMSSMVSDTSCTFPSGDGIFWKHWIQTKDGQCGSPLVSTRDGFIVGIHSASNFTNTNNYFTSVPKNFMELLTNQEAQQWVSGWRLNADSVLWGGHKVFMVKPEEPFQPVKEATQL

Variants of: B1
Test: raw area under fraction-flipped curve 0-4 h after induction (AUC4h, not background-subtracted), DNA-recorder readout of cleavage of the substrate (dimensionless); higher = more cleavage of the substrate by the protease variant
Details: temperature: 34 °C; time window: 0-4 h after rhamnose induction
Protocol: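 In vivo DNA recorder in E. coli TOP10(DE3) ΔrhaA at 34 °C. Each TEVp single-site mutant (parent TEVp 0) is paired with a single-site variant of the 7-mer TEVs (canonical ENLYFQ|S). The substrate sits between flexible linkers in a Bxb1-sfGFP-TEVs-SsrA fusion, so cleavage stabilises Bxb1 and speeds flipping of a recombination array, read by NGS. The value is the raw area under the fraction-flipped curve over 0-4 h after rhamnose induction (AUC4h), with ≥20 reads per time point. It is not background-subtracted; inactive controls average about 0.047.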
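Also: Bxb1 expression induced with 0.2% (w/v) L-rhamnose at OD600 near 0.5, cultures sampled hourly, flipped fraction per protease–substrate barcode pair counted by paired-end Illumina sequencing.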

MGESLFKGPRDYNPISSSICHLTNESDGHTTSLYGIGFGPFIITNKHLFRRNNGTLVVQSLHGVFKVKDTTTLQQHLVDGRDMIIIRMPKDFPPFPQKLKFREPQREERICLVTTNFQTKSMSSMVSDTSCTFPSGDGIFWKHWIQTKDGQCGSPLVSTRDGFCVGIHSASNFTNTNNYFTSVPKNFMELLTNQEAQQWVSGWRLNADSVLWGGHKVFMVKPEEPFQPVKEATQL [I164C]
area with substrate ENLYFQA: 0.0974 | area with substrate ENLYFQC: 0.108 | area with substrate ENLYFQD: 0.0752 | area with substrate ENLYFQF: 0.0752 | area with substrate ENLYFQG: 0.089 | area with substrate ENLYFQH: 0.0832 | area with substrate ENLYFQK: 0.0617 | area with substrate ENLYFQL: 0.0634 | area with substrate ENLYFQM: 0.0902 | area with substrate ENLYFQN: 0.0801 | area with substrate ENLYFQP: 0.0664 | area with substrate ENLYFQR: 0.0582 | area with substrate ENLYFQS: 0.0918 | area with substrate ENLYFQT: 0.0713 | area with substrate ENLYFQV: 0.0602 | area with substrate ENLYFQW: 0.0859 | area with substrate ENLYFQY: 0.0692

MGESLFKGPRDYNPISSSICHLTNESDGHTTSLYGIGFGPFIITNKHLFRRNNGTLVVQSLHGVFKVKDTTTLQQHLVDGRDMIIIRMPKDFPPFPQKLKFREPQREERICLVTTNFQTKSMSSMVSDTSCTFPSGDGIFWKHWIQTKDGQCGSPLVSTRDMFIVGIHSASNFTNTNNYFTSVPKNFMELLTNQEAQQWVSGWRLNADSVLWGGHKVFMVKPEEPFQPVKEATQL [G162M]
area with substrate ENLYFQA: 0.0973 | area with substrate ENLYFQC: 0.0971 | area with substrate ENLYFQD: 0.0628 | area with substrate ENLYFQF: 0.0422 | area with substrate ENLYFQI: 0.0452 | area with substrate ENLYFQL: 0.0606 | area with substrate ENLYFQM: 0.0678 | area with substrate ENLYFQP: 0.0468 | area with substrate ENLYFQQ: 0.0707 | area with substrate ENLYFQR: 0.0575 | area with substrate ENLYFQS: 0.0964 | area with substrate ENLYFQT: 0.0575 | area with substrate ENLYFQW: 0.0638

MGESLFKGPRDYNPISSSICHLTNESDGHTTSLYGIGFGPFIITNKHLFRRNNGTLVVQSLHGVFKVKDTTTLQQHLVDGRDMIIIRMPKDFPPFPQKLKFREPQREERICLVTTNFQTKSMSSMVSDTSCTFPSGDGIFWKHWIQTKDGQCGSPLVSTRDGFIVGIHFASNFTNTNNYFTSVPKNFMELLTNQEAQQWVSGWRLNADSVLWGGHKVFMVKPEEPFQPVKEATQL [S169F]
area with substrate ENLYFQA: 0.0697 | area with substrate ENLYFQC: 0.0711 | area with substrate ENLYFQD: 0.0592 | area with substrate ENLYFQF: 0.0675 | area with substrate ENLYFQG: 0.0587 | area with substrate ENLYFQI: 0.0441 | area with substrate ENLYFQK: 0.06 | area with substrate ENLYFQL: 0.0536 | area with substrate ENLYFQM: 0.0592 | area with substrate ENLYFQN: 0.0498 | area with substrate ENLYFQQ: 0.0632 | area with substrate ENLYFQR: 0.0627 | area with substrate ENLYFQS: 0.0643 | area with substrate ENLYFQW: 0.0509 | area with substrate ENLYFQY: 0.0558

MGESLFKGPRDYNPISSSICHLTNESDGHTTSLYGIGFGPFIITNKHLFRRNNGTLVVQSLHGVFKVKDTTTLQQHLVDGRDMIIIRMPKDFPPFPQKLKFREPQREERICLVTTNFQTKSMSSMVSDTSCTFPSGDGIFWKHWIQTKDGQCGSPLVSTRCGFIVGIHSASNFTNTNNYFTSVPKNFMELLTNQEAQQWVSGWRLNADSVLWGGHKVFMVKPEEPFQPVKEATQL [D161C]
area with substrate ENLYFQA: 0.1 | area with substrate ENLYFQE: 0.054 | area with substrate ENLYFQF: 0.0787 | area with substrate ENLYFQH: 0.0627 | area with substrate ENLYFQK: 0.0647 | area with substrate ENLYFQL: 0.0558 | area with substrate ENLYFQM: 0.0602 | area with substrate ENLYFQN: 0.0619 | area with substrate ENLYFQQ: 0.0331 | area with substrate ENLYFQR: 0.0656 | area with substrate ENLYFQS: 0.0758 | area with substrate ENLYFQT: 0.0789 | area with substrate ENLYFQV: 0.0398 | area with substrate ENLYFQW: 0.0538 | area with substrate ENLYFQY: 0.0671

MGESLFKGPRDYNPISSSICHLTNESDGHTTSLYGIGFGPFIITNKHLFRRNNGTLVVQSLHGVFKVKDTTTLQQHLVDGRDMIIIRMPKDFPPFPQKLKFREPQREERICLVTTNFQTKSMSSMVSDTSCTFPSGDGIFWKHWIQTKDGQCGSPLVSTRKGFIVGIHSASNFTNTNNYFTSVPKNFMELLTNQEAQQWVSGWRLNADSVLWGGHKVFMVKPEEPFQPVKEATQL [D161K]
area with substrate ENLYFQA: 0.0558 | area with substrate ENLYFQC: 0.0635 | area with substrate ENLYFQF: 0.0467 | area with substrate ENLYFQG: 0.0566 | area with substrate ENLYFQH: 0.0638 | area with substrate ENLYFQI: 0.0523 | area with substrate ENLYFQK: 0.0643 | area with substrate ENLYFQL: 0.0536 | area with substrate ENLYFQM: 0.0546 | area with substrate ENLYFQN: 0.0487 | area with substrate ENLYFQR: 0.0575 | area with substrate ENLYFQS: 0.0605 | area with substrate ENLYFQT: 0.0619 | area with substrate ENLYFQV: 0.0473 | area with substrate ENLYFQW: 0.0418 | area with substrate ENLYFQY: 0.066

MGESLFKGPRDYNPISSSICHLTNESDGHTTSLYGIGFGPFIITNKHLFRRNNGTLVVQSLHGVFKVKDTTTLQQHLVDGRDMIIIRMPKDFPPFPQKLKFREPQREERICLVTTNFQTKSMSSMVSDTSCTFPSGDGIFWKHWIQTKDGQCGSPLVSTRFGFIVGIHSASNFTNTNNYFTSVPKNFMELLTNQEAQQWVSGWRLNADSVLWGGHKVFMVKPEEPFQPVKEATQL [D161F]
area with substrate ENLYFQA: 0.0587 | area with substrate ENLYFQC: 0.0416 | area with substrate ENLYFQD: 0.0377 | area with substrate ENLYFQK: 0.05 | area with substrate ENLYFQL: 0.0418 | area with substrate ENLYFQM: 0.0623 | area with substrate ENLYFQS: 0.0582 | area with substrate ENLYFQW: 0.0516 | area with substrate ENLYFQY: 0.0611

MGESLFKGPRDYNPISSSICHLTNESDGHTTSLYGIGFGPFIITNKHLFRRNNGTLVVQSLHGVFKVKDTTTLQQHLVDGRDMIIIRMPKDFPPFPQKLKFREPQREERICLVTTNFQTKSMSSMVSDTSCTFPSGDGIFWKHWIQTKDGQCGSPLVSTRDGRIVGIHSASNFTNTNNYFTSVPKNFMELLTNQEAQQWVSGWRLNADSVLWGGHKVFMVKPEEPFQPVKEATQL [F163R]
area with substrate ENLYFQA: 0.116 | area with substrate ENLYFQC: 0.118 | area with substrate ENLYFQD: 0.0722 | area with substrate ENLYFQH: 0.0705 | area with substrate ENLYFQI: 0.0581 | area with substrate ENLYFQK: 0.0427 | area with substrate ENLYFQL: 0.0576 | area with substrate ENLYFQN: 0.0979 | area with substrate ENLYFQP: 0.0584 | area with substrate ENLYFQQ: 0.0827 | area with substrate ENLYFQR: 0.0678 | area with substrate ENLYFQS: 0.109 | area with substrate ENLYFQT: 0.069 | area with substrate ENLYFQW: 0.0715

MGESLFKGPRDYNPISSSICHLTNESDGHTTSLYGIGFGPFIITNKHLFRRNNGTLVVQSLHGVFKVKDTTTLQQHLVDGRDMIIIRMPKDFPPFPQKLKFREPQREERICLVTTNFQTKSMSSMVSDTSCTFPSGDGIFWKHWIQTKDGQCGSPLVSTRDGFIVGWHSASNFTNTNNYFTSVPKNFMELLTNQEAQQWVSGWRLNADSVLWGGHKVFMVKPEEPFQPVKEATQL [I167W]
area with substrate ENLYFQA: 0.0593 | area with substrate ENLYFQC: 0.0745 | area with substrate ENLYFQE: 0.0467 | area with substrate ENLYFQF: 0.0697 | area with substrate ENLYFQG: 0.0684 | area with substrate ENLYFQI: 0.0479 | area with substrate ENLYFQK: 0.0606 | area with substrate ENLYFQL: 0.0547 | area with substrate ENLYFQM: 0.0571 | area with substrate ENLYFQN: 0.0505 | area with substrate ENLYFQP: 0.0692 | area with substrate ENLYFQQ: 0.0566 | area with substrate ENLYFQR: 0.0549 | area with substrate ENLYFQS: 0.0598 | area with substrate ENLYFQT: 0.072 | area with substrate ENLYFQV: 0.0587 | area with substrate ENLYFQW: 0.0623

MGESLFKGPRDYNPISSSICHLTNESDGHTTSLYGIGFGPFIITNKHLFRRNNGTLVVQSLHGVFKVKDTTTLQQHLVDGRDMIIIRMPKDFPPFPQKLKFREPQREERICLVTTNFQTKSMSSMVSDTSCTFPSGDGIFWKHWIQTKDGQCGSPLVSTRDGFIVGIWSASNFTNTNNYFTSVPKNFMELLTNQEAQQWVSGWRLNADSVLWGGHKVFMVKPEEPFQPVKEATQL [H168W]
area with substrate ENLYFQA: 0.0569 | area with substrate ENLYFQC: 0.0619 | area with substrate ENLYFQD: 0.0546 | area with substrate ENLYFQE: 0.0655 | area with substrate ENLYFQG: 0.0667 | area with substrate ENLYFQH: 0.0602 | area with substrate ENLYFQI: 0.0532 | area with substrate ENLYFQK: 0.0495 | area with substrate ENLYFQL: 0.0633 | area with substrate ENLYFQM: 0.0663 | area with substrate ENLYFQN: 0.058 | area with substrate ENLYFQP: 0.0658 | area with substrate ENLYFQQ: 0.0649 | area with substrate ENLYFQR: 0.0436 | area with substrate ENLYFQS: 0.0622 | area with substrate ENLYFQT: 0.0518 | area with substrate ENLYFQW: 0.0573 | area with substrate ENLYFQY: 0.0568
